In all, about 33,000 sequences were measured (“E-score (-0.5 to 0.5)”: median about -0.016, highest 2% from about 0.32 on). The list shows a part of the results.
These sequences were tested against T1, Stp1 (UniProt B3LFK1) (assay: PBM E-score (8-mer binding enrichment) (E-score (-0.5 to 0.5)); higher = stronger / more preferred TF binding; most listed sequences are background and not binding sites). Settings: protein concentration: 200 nM; construct: GST-full length.
T1 sequence: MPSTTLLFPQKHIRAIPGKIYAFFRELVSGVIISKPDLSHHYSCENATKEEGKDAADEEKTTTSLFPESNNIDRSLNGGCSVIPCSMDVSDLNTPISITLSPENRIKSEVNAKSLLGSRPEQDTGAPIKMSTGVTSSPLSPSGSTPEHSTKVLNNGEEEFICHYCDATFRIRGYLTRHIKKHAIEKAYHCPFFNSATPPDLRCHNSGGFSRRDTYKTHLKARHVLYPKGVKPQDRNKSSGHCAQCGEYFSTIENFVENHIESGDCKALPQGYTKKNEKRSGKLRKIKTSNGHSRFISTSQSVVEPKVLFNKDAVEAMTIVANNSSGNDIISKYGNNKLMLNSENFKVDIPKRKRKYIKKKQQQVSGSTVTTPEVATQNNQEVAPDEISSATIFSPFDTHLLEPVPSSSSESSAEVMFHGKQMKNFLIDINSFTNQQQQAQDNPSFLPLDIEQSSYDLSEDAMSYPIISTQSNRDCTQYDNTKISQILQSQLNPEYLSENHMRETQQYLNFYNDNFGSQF
Summary of the method: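 Each ungapped eight-base word and its reverse complement, pooled, received an E-score from the Universal PBM Analysis Suite. Underlying scans, normalised with masliner, recorded fluorescent anti-GST bound to GST-tagged yeast transcription factors. These were applied at about 100-200 nM to universal all-10-mer Agilent arrays double-stranded by primer extension.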

In order of falling “PBM E-score” value:
1. CCGCATCC  0.265
2. CGCGCGGA  0.256
3. GTTTATCA  0.246
4. ATTCTGCC  0.237
5. GCTATATA  0.179
6. ATTGAGTA  0.176
7. CGAAATGA  0.174
8. ACAAAAGG  0.149
9. ATGAGATG  0.141
10. ATTTCGGA  0.136
11. CAGAAGGC  0.134
12. ACGTAATA  0.133
13. CTTAGAAA  0.0995
14. CGGATAAC  0.0969
15. GGGTTTGA  0.0868
16. AACTAGGC  0.0847
17. GTGTGTCA  0.0769
18. GGGCGAAA  0.0741
19. ACGCGTTA  0.0678
20. AAAGAGCC  0.0603
21. AACCTCGG  0.056
22. CGGTATTA  0.0515
23. CATCAGAA  0.0513
24. CTGTTGGA  0.0495
25. ACTCGCCA  0.0484
26. ATTTCATG  0.0433
27. GAACCGAC  0.0425
28. CGGTTACG  0.0349
29. AATAGAAG  0.0231
30. TACACTAA  0.0201
31. CTGAAGCA  0.0186
32. ATTATAGA  0.00759
33. CTCGCCTC  0.00469
34. CGCTTCCG  0.00427
35. ATGGTCGA  0.00375
36. CAGTATCC  0.00046
37. ATCACCGC  -0.00184
38. AAGTTCTG  -0.0022
39. AGTTAGAT  -0.00459
40. ACCGAGCA  -0.0192
41. GGAAGAGA  -0.0204
42. GGTTAGAC  -0.0207
43. GGAATGCA  -0.0291
44. CTGGATAC  -0.0367
45. AGACAGAA  -0.0425
46. GGGCGCAC  -0.0463
47. ACAGATGG  -0.0467
48. GGCCCTTA  -0.0507
49. GAGCCAAC  -0.0531
50. GATATGGC  -0.0541
51. ACGAGTTG  -0.0653
52. CTCTTCGC  -0.0665
53. ACATCACG  -0.075
54. CAGCGATG  -0.0761
55. ACACGTGT  -0.0817
56. TAGCTGAA  -0.0818
57. AGCTTAAG  -0.0834
58. AGTTCCCG  -0.0909
59. AGCAAGAA  -0.0915
60. CTTTGCTC  -0.0985
61. GGAGACTA  -0.101
62. ACCGCCCC  -0.144
63. CACTTAGG  -0.144
64. TAGCCTGA  -0.156
65. ATGGCCTG  -0.159
66. GGACACGA  -0.159
67. CTCCCTAC  -0.163
68. ACCGGACT  -0.168
69. CAGAGACC  -0.17
70. CGATCAAC  -0.174
71. AGGGCTGC  -0.174
72. GAGTTGAC  -0.185
73. GTCTGCAC  -0.186
74. GAACGTCA  -0.194
75. ACGGTCCA  -0.2
76. AGAGACTG  -0.206
77. CAGTCCTA  -0.218
78. TAGCAGGA  -0.226
79. GAAACCCC  -0.237
80. CTGCTCGC  -0.243
81. CCGGGAGG  -0.245
82. AGGATGAC  -0.245
83. CCGCCAGC  -0.278
84. CTACCCAG  -0.32
85. CAGGGGAG  -0.321
86. CCCCGCTC  -0.343

From the supplement of paper PMC3334620
